Test results taken from PubChem BioAssay AID463173 (ICCB-Longwood Screening Facility, Harvard Medical School, 2010).
Screen size: about 52,000 compounds; about 4,300 (8.3%) were called active. No stated cut-off is given here; in the data, active means survival mostly below about 52% (no sharp cut-off); inactive means mostly above about 56%. This is one part of the list.

test system: DeltatarO mutant; experiment: S. aureus survival, RN4220 and DeltatarO strains – OD600, teichoic acid synthesis inhibitors, primary screen (AID 463173); conditions: S. aureus RN4220 wild type/DeltatarO growth, OD600, 18 h, hits give low values, screened at 18.75 µg/mL (by protocol)

Row | SMILES | survival
1 | O=C(CSc1nccn1Cc1ccc(F)cc1)Nc1ccc2c(c1)OCO2 | inactive: 113%
2 | Cc1ccc(CNC(=O)CN2C(=O)C3(SCC(=O)N3c3cc(C)cc(C)c3)c3ccccc32)cc1 (centres undefined) | inactive: 91%
3 | COc1ccc(N2CCN(C(=O)C3CCN(S(=O)(=O)Cc4ccccc4)CC3)CC2)cc1 | inactive: 78%
4 | Cc1nc(-c2cccc(F)c2)sc1CCNC(=O)c1ccc(F)c(F)c1 | inactive: 77%
5 | CCOc1ccc(Nc2oc(-c3ccc(COc4ccccc4C)o3)nc2C#N)cc1 | inactive: 64%
6 | CCC(C)NC(=O)C1CCN(c2ncccn2)CC1 (centres undefined) | inactive: 95%
7 | CN(C(=O)CSc1nc2ccccc2n1CC(=O)N(C)c1ccc(F)cc1)c1ccccc1 | inactive: 76%
8 | COc1cc(NC(=O)c2cc(-c3ccc(Cl)c(Cl)c3)on2)cc(OC)c1OC | inactive: 111%
9 | Cc1ccc(Nc2nc(Nc3ccc(C)c(C)c3)nc(N3CCOCC3)n2)cc1C | active: 34%
10 | CCc1cccc(C)c1NC(=O)C1CCN(S(=O)(=O)Cc2ccccc2)CC1 | inactive: 84%
11 | COc1cc(C(=O)N2CCN(c3ccc(Nc4ccccc4)nn3)CC2)cc(OC)c1OC | inactive: 80%
12 | COc1ccc(N2CCN(CCCNC(=O)c3cc(Nc4ccccc4OC)nc4ccccc34)CC2)cc1 | inactive: 62%
13 | CC1CCCCN1S(=O)(=O)c1cc2c3c(c1)CC(=O)N3CCC2 (centres undefined) | inactive: 101%
14 | Cc1ccc(CNC(=O)CCCCn2c(=O)c3ccccc3n(Cc3ccc(C)cc3)c2=O)cc1 | inactive: 67%
15 | CC(=O)Nc1ccc2[nH]c(C)cc(=O)c2c1 | inactive: 99%
16 | CCCCSCCCNC(=O)c1cn(C)c2ccc(S(=O)(=O)N3CCCC3)cc2c1=O | inactive: 76%
17 | Cc1cc(C)cc(OCC(=O)N(Cc2ccc(Cl)cc2)CC2CCCO2)c1 (centres undefined) | inactive: 76%
18 | CCOC(=O)c1c(S(=O)(=O)N2CCC(C(=O)NCc3ccccc3OC)CC2)c(C)n(C)c1C | inactive: 94%
19 | O=C(NC1CCCC1)c1ccc2c(=O)n(Cc3ccccc3)c(SCc3ccccc3)nc2c1 | inactive: 92%
20 | Cc1ccc(-n2nc(C(=O)Nc3ccc(C)c(F)c3)c(=O)n(C)c2=O)cc1 | inactive: 77%
21 | COc1ccc(-c2nc3ccc(C)cn3c2Nc2ccc3c(c2)OCO3)cc1 | inactive: 128%
22 | Cc1oc(-c2cccc(Cl)c2)nc1CN1CCCC(C(=O)NCc2ccc(Cl)cc2)C1 (centres undefined) | active: -1%
23 | Cc1ccccc1CNC(=O)c1sc2ncnc(N(C)C3CCCCC3)c2c1C | inactive: 69%

Row | SMILES | survival
24 | O=S(=O)(c1ccc2[nH]c3c(c2c1)CCCCC3)N1CCN(c2cccc(Cl)c2)CC1 | inactive: 94%
25 | CCNC(=O)CCSc1nc2cc(Cl)ccc2o1 | inactive: 85%
26 | CCOC(=O)c1oc2ccccc2c1NC(=O)CN1CCOCC1 | inactive: 92%
27 | CC1=C(C(=O)Nc2cccc(C(F)(F)F)c2)C2(CCCCC2)OC1=O | inactive: 95%
28 | Cc1cccc(NC(=O)c2sc(-n3nc(C)c(CCC(C)C)c3C)nc2C)c1C | inactive: 62%
29 | COc1cc(OC)cc(C(=O)Nc2cccc(-c3cn4cccnc4n3)c2)c1 | inactive: 117%
30 | O=C(Cn1c(=O)n(Cc2ccc(C(=O)NCc3ccccc3Cl)cc2)c(=O)c2ccccc21)Nc1ccc(F)c(Cl)c1 | inactive: 99%
31 | COc1ccc(N2CC(NC(=O)COc3ccc4ccccc4c3)CC2=O)cc1 (centres undefined) | inactive: 95%
32 | O=C(Cn1c(-c2cccs2)cc2ccccc21)NCc1ccccc1Br | inactive: 98%
33 | COc1cccc(C(=O)Nc2ccccc2-c2nc3ccccc3s2)c1 | active: 33%
34 | CN(C)S(=O)(=O)c1ccc2c(c1)N(CC(=O)N1CCN(c3ccccc3F)CC1)CCS2 | inactive: 119%
35 | CCc1cccc(C)c1NC(=O)CN1C(=O)C2(SCC(=O)N2c2cc(C)cc(C)c2)c2ccccc21 (centres undefined) | inactive: 90%
36 | Cc1cccc(CNC(=O)CN2C(=O)CCCc3ccccc32)c1 | inactive: 91%
37 | Cc1ccc(-c2nc(CS(=O)(=O)CC(=O)NCc3ccccc3Cl)c(C)o2)cc1 | inactive: 56%
38 | O=C(O)C(c1ccccc1)N1CCCC1 (centres undefined) | inactive: 89%
39 | CCOc1ccccc1NC(=O)CN1CCCN(Cc2cccc(Cl)c2)S1(=O)=O | inactive: 96%
40 | COc1cc(NC(=O)c2cccc(F)c2)ccc1NC(=O)c1cc2ccccc2o1 | inactive: 56%
41 | CC1CCC2(CC1)N=C(c1ccccc1)C(=O)N2CC(=O)Nc1ccc(F)c(Cl)c1 (centres undefined) | inactive: 50%
42 | CCOC(=O)c1cccc(NS(=O)(=O)c2cc3[nH]c(=O)c(=O)[nH]c3cc2C)c1 | inactive: 87%
43 | Cc1nc2ncnn2c(C)c1CCC(=O)N1CCN(c2cccc(Cl)c2)CC1 | inactive: 86%
44 | CCc1ccc(NC(=O)c2nnn(Cc3cccc(C(F)(F)F)c3)c2N)cc1 | inactive: 82%
45 | COc1cccc(CNC(=O)c2ccc3c(c2)nc2n3CCCCC2)c1OC | inactive: 61%
46 | COc1cccc(CNC(=O)COCc2cc(-c3ccc4c(c3)OCO4)on2)c1 | active: 37%

Row | SMILES | survival
47 | CCCOc1ccc(NC(=O)CC2C(=O)N(c3ccc(C)cc3)C(=O)N2Cc2cccc(OC)c2)cc1 (centres undefined) | active: 46%
48 | Cc1ccc2c(c1C)NC(C(=O)O)C1CC=CC21 (centres undefined) | inactive: 85%
49 | COc1cc2[nH]c(=O)c(C(=O)NCCN3CCNCC3)c(O)c2cc1OC | inactive: 67%
50 | O=c1c2cc3c(nc2ncn1Cc1ccc(Cl)cc1)CCCC3 | inactive: 95%
51 | CCOC(=O)C1CCN(c2c(C(=O)c3ccc(C)cc3)cnc3ccc(F)cc23)CC1 | active: 2%
52 | O=C1NC2(CCCCC2)C(=O)N1c1ccc(C(F)(F)F)cc1 | inactive: 86%
53 | COc1ccc(NC(=O)CN2C(=O)c3ccccc3Sc3ccc(C(=O)N4CCOCC4)cc32)c(OC)c1 | inactive: 87%
54 | CCN(CC)C(=O)Cn1cc(/C=C(\C#N)C(N)=O)c2ccccc21 | inactive: 87%
55 | Cc1ccc2c(c1)cc(CN(Cc1ccco1)C(=O)N(C)C)c1nnnn12 | inactive: 92%
56 | CSc1ccc(CC2C(=O)Nc3ccccc32)cc1 (centres undefined) | inactive: 77%
57 | O=C(Cc1ccccc1F)N1CCC(c2nc3c(nnn3Cc3ccc(F)cc3)c(=O)[nH]2)CC1 | inactive: 72%
58 | O=C(CS(=O)(=O)c1cccc2nsnc12)Nc1cc(F)ccc1F | inactive: 90%
59 | CC(=O)/C=C(\C)Nc1ccccc1S | inactive: 99%
60 | CCc1ccc(NC(=O)C2=CC(c3ccc4c(c3)OCO4)=NS(=O)(=O)N2C)cc1 | inactive: 80%
61 | COc1ccc(NC(=O)Nc2c[nH]c(=O)[nH]c2=O)c(OC)c1 | inactive: 94%
62 | Cc1cccc(-n2c(C)nc3cc(C(=O)NC4CCCCCC4)ccc32)c1 | inactive: 99%
63 | CCOc1ccc(-c2nc(SCC(=O)NCCCOC)c(-c3ccccc3)[nH]2)cc1 | inactive: 121%
64 | CCn1c(CN2CCOCC2)nc2cc(NC(=O)c3ccc([N+](=O)[O-])cc3)ccc21 | inactive: 81%
65 | Cc1c(C(=O)N(Cc2ccc(Cl)cc2)CC2CCCO2)oc2ccc(F)cc12 (centres undefined) | inactive: 68%
66 | COc1ccccc1CNC(=O)CSc1ncc2c(n1)-c1cc(Cl)ccc1N(Cc1ccccc1)S2(=O)=O | inactive: 80%
67 | CCC(C)(C)n1nnnc1C(c1ccccc1)N1CCc2ccccc2C1 (centres undefined) | inactive: 79%
68 | COc1ccc(OC)c(CCNc2nc3ccccc3c3nc(-c4cccnc4)nn23)c1 | inactive: 112%
69 | Brc1ccc(-n2nc(-c3ccccc3)c3cnc4cc5c(cc4c32)OCO5)cc1 | inactive: 124%

Row | SMILES | survival
70 | Cc1ccc2[nH]c(CSc3nnc(NC(=O)c4ccc(Cl)cc4)s3)cc(=O)c2c1 | inactive: 99%
71 | COC(=O)c1cc2oc3ccccc3c2n1Cc1nc(-c2ccccc2C)oc1C | inactive: 127%
72 | O=C(CSCc1cc(=O)c2cc(F)ccc2[nH]1)Nc1ccccc1Cl | inactive: 94%
73 | Cc1cccc(N2CCN(S(=O)(=O)c3cc(C(=O)Nc4ccccc4Cl)ccc3F)CC2)c1C | inactive: 83%
74 | CCc1ccccc1NC(=O)CSc1nnc2ccc3ccccc3n12 | inactive: 86%
75 | CC(C)(C)OC(=O)N1CCC(c2c(C(=O)NCCN3CCC(Cc4ccccc4)CC3)cnn2-c2ccc(F)cc2)CC1 | active: 47%
76 | CCC(C)NC(=O)CCc1c(C)nc2nc(-c3cc(OC)cc(OC)c3)nn2c1C (centres undefined) | inactive: 82%
77 | Cc1ccc(NC(=O)[C@@H](c2ccccc2)N2Cc3ccccc3C2=O)cc1 | inactive: 71%
78 | Cc1ccc(N2C(=O)CSC23C(=O)N(CC(=O)Nc2ccc(C(C)C)cc2)c2ccccc23)cc1C (centres undefined) | inactive: 85%
79 | Cc1coc2cc3oc(=O)c(CC(=O)NCCc4ccccc4)c(C)c3cc12 | inactive: 84%
80 | COc1cccc(NC(=O)C(Cc2ccccc2)NS(=O)(=O)c2ccc3c(c2)oc(=O)n3C)c1 (centres undefined) | inactive: 129%
81 | COc1ccc(-n2nc(C(=O)Nc3cccc(C)n3)c3c4ccccc4n(C)c3c2=O)cc1Cl | inactive: 66%
82 | CCOc1ccc(CCNC(=O)CCc2cn(Cc3ccc(F)cc3)c3ccccc23)cc1 | inactive: 67%
83 | O=C(Nc1cccnc1Cl)c1cc(-c2cccc(Cl)c2)on1 | inactive: 72%
84 | COc1ccc(NC(=O)CSc2nc(NS(=O)(=O)c3ccccc3)cc(=O)[nH]2)cc1 | inactive: 72%
85 | CCOc1ccc(CCNC(=O)c2cc3c(-c4ccc(OC)c(OC)c4)nn(C)c3s2)cc1OCC | inactive: 77%
86 | CCOc1ccc(NC(=O)Cn2cc(C(=O)c3ccco3)c3ccccc32)cc1 | inactive: 63%
87 | Cc1cc(S(=O)(=O)C(CNC(=O)COc2ccc(Cl)cc2)c2cccs2)ccc1F (centres undefined) | inactive: 98%
88 | CCCN(CCC)C(=O)c1c2c(nc3ccccc13)C(=O)N(C1CCCCC1)C2 | inactive: 64%
89 | Cc1ccc(CCNC(=O)C2CCN(Cc3nc(-c4ccccc4C)oc3C)CC2)cc1 | inactive: 118%
